Results: patent US20050064485A1, “Multiplex binding and activity assays” (priority 2003, published 2005)

Test system: anti-pSer133 antibody labeled with CS124-DTPA-Phe-NCS*Tb

LRREILSRRP(pS)YRK-Fluorescein [SEQ ID NO:7]
change in TR-RET value between free and bound forms: 32 fold
